Assay results as given in PMC11126936, “Reactivating Hippo by drug compounds to suppress gastric cancer and enhance chemotherapy sensitivity” (The Journal of Biological Chemistry, 2024).
Where “and” joins values, the source holds several entries; their conditions need not be identical. Identical values can stand only once. Counter-ions that a name gives are not always drawn.

Assay: Second-round AlphaScreen false-positive control (Table S4)
Conditions: not given

Row | Molecule | False positive rate (%)
1 | Cl.Fc1ccc(-n2cc(CCCCN3CCC4(CC3)OCc3ccccc34)c3ccccc32)cc1 [Lu-28-179] | 28.534
2 | COc1ccc(C(=C2C(=O)Nc3ccccc32)c2ccc(OC)cc2)cc1 [TAS-301] | 40.9573
3 | 6-BIO | 83.6108

Same assay, conditions: 2nd round validation screen, STRN3-MST2; disruption of protein-bead interactions

Row | Molecule | False positive rate (%)
4 | CO/N=C1\C[C@]2(C[C@@H]3C[C@@H](C/C=C(\C)C[C@@H](C)/C=C/C=C4\CO[C@@H]5[C@H](O)C(C)=C[C@@H](C(=O)O3)[C@]45O)O2)O[C@H](/C(C)=C/C(C)C)[C@H]1C [Moxidectin] | 23.9524%
5 | Cc1ccc(C(=O)Nc2ccc(CN3CCN(C)CC3)c(C(F)(F)F)c2)cc1C#Cc1cnc2[nH]ncc2c1 [GZD824 Dimesylate] | -6.156%
6 | CCCCCCCCCCCCCCCC[N+](C)(C)CCN(Cc1ccc(OC)cc1)c1ncccn1 [THONZONIUM BROMIDE] | -3.7338%
7 | COc1cc(-c2ccc(N=Nc3ccc4c(S(=O)(=O)[O-])cc(S(=O)(=O)[O-])c(N)c4c3O)c(OC)c2)ccc1N=Nc1ccc2c(S(=O)(=O)[O-])cc(S(=O)(=O)[O-])c(N)c2c1O.[Na+].[Na+].[Na+].[Na+] [CHICAGO SKY BLUE 6B] | 66.5178%
8 | NCC(=O)Nc1ccc(-n2nc(C(F)(F)F)cc2-c2ccc3c(ccc4ccccc43)c2)cc1 [osu-03012] | 19.2372%
9 | COc1cc(NS(=O)(=O)c2ccc(N)cc2)ncn1 [Sulfamonomethoxine] | 1.205%
10 | O=C(O)CCCC[C@@H]1SC[C@@H]2NC(=O)N[C@@H]21 [BIOTIN] | 97.8806%
11 | O=C(O)c1cc(O)c2c(c1)[C@@H]([C@H]1c3cc(C(=O)O)cc(O)c3C(=O)c3c(O[C@@H]4O[C@H](CO)[C@@H](O)[C@H](O)[C@H]4O)cccc31)c1cccc(O[C@@H]3O[C@H](CO)[C@@H](O)[C@H](O)[C@H]3O)c1C2=O [Sennoside B] | 74.2713%
12 | Spiramycin | -1.065%
13 | C/C(=N\NC(=S)N1CCC1)c1ccccn1 [NSC319726] | 55.8309%
14 | CNC(=O)c1cc(Oc2ccc(NC(=O)Nc3ccc(Cl)c(C(F)(F)F)c3)c(F)c2)ccn1 [Regorafenib] | 36.7223%
15 | Cc1ccc(C(=O)Nc2ccc(S(=O)(=O)[O-])c3cc(S(=O)(=O)[O-])cc(S(=O)(=O)[O-])c23)cc1NC(=O)c1cccc(NC(=O)Nc2cccc(C(=O)Nc3cc(C(=O)Nc4ccc(S(=O)(=O)[O-])c5cc(S(=O)(=O)[O-])cc(S(=O)(=O)[O-])c45)ccc3C)c2)c1.[Na+].[Na+].[Na+].[Na+].[Na+].[Na+] [Suramin Sodium Salt] | 13.1037%
16 | COc1c2ccoc2cc2oc(=O)ccc12 [Bergapten] | 89.6696%
17 | COc1cc(N2CCC(N3CCN(C)CC3)CC2)ccc1Nc1ncc(Cl)c(Nc2ccccc2S(=O)(=O)C(C)C)n1 [TAE684 (NVP-TAE684), TAE684] | 46.7593%
18 | Abamectin | 17.4999%
19 | Cc1c(-c2ccc(O)cc2)n(Cc2ccc(OCCN3CCCCCC3)cc2)c2ccc(O)cc12 [Bazedoxifene acetate] | 12.8279%
20 | Teicoplanin | -9.109%
21 | CC(C)/N=c1\cc2n(-c3ccc(Cl)cc3)c3ccccc3nc-2cc1Nc1ccc(Cl)cc1 [Clofazimine] | 55.2232%
22 | CCCCc1oc2ccccc2c1C(=O)c1cc(I)c(OCCN(CC)CC)c(I)c1 [Amiodarone hydrochloride] | 7.287%

Row | Molecule | False positive rate (%)
23 | Glycerite | 83.611% and 65.1816%
24 | COC1CCN(C(=O)c2cc(Cc3n[nH]c(=O)c4ccccc34)ccc2F)CC1 [AZD2461] | 21.0804%
25 | O=[N+]([O-])c1ccc(O)c2ncccc12 [Nitroxoline] | 72.0137%
26 | CC(C)(C)c1ccc(C(=O)CCCN2CCC(OC(c3ccccc3)c3ccccc3)CC2)cc1 [Ebastine] | 11.7647%
27 | CN(C)Cc1ccc(-c2cnn3c(-c4cccc(NC(=O)c5cccc(C(F)(F)F)c5)c4)ccnc23)cc1 [B-Raf IN 1] | 3.141%
28 | CC(C)c1cc(-c2n[nH]c(=O)n2-c2ccc3c(ccn3C)c2)c(O)cc1O [Ganetespib] | 21.1678%
29 | Chlorophyllin | 59.4685%
30 | NCCOc1cc(C(=O)Nc2cc(OCCN)c3ccccc3n2)nc(C(=O)Nc2cc(OCCN)c3ccccc3n2)c1 [Pyridostatin] | 2.107%
31 | CC1(C)S[C@@H]2[C@H](N3C(=O)[C@@H](c4ccccc4)NC3(C)C)C(=O)N2[C@H]1C(=O)O [HETACILLIN POTASSIUM] | -1.274%
32 | [H]/N=C(\N/C(=N/[H])NCCCCCCNC(=N)NC(=N)Nc1ccc(Cl)cc1)Nc1ccc(Cl)cc1 [Chlorhexidine] | -16.6514%
33 | CO[C@H]1C[C@H](O[C@H]2[C@H](C)O[C@@H](O[C@@H]3/C(C)=C/C[C@@H]4C[C@@H](C[C@]5(C=C[C@H](C)[C@@H](C6CCCCC6)O5)O4)OC(=O)[C@@H]4C=C(C)[C@@H](O)[C@H]5OC/C(=C\C=C\[C@@H]3C)[C@]54O)C[C@@H]2OC)O[C@@H](C)[C@@H]1O [Doramectin] | 13.8074%
34 | CC[C@@H](c1cccc(O)c1)[C@@H](C)CN(C)C.Cl [Tapentadol Hydrochloride] | 12.5306%
35 | C=CC(=O)Nc1cc(Nc2nccc(-c3cn(C)c4ccccc34)n2)c(OC)cc1N(C)CCN(C)C [AZD9291] | 28.7018%
36 | CC(C)N1CCN(c2ccc(OCC3COC(Cn4cncn4)(c4ccc(Cl)cc4Cl)O3)cc2)CC1 (stereo not drawn) [Terconazole] | 14.704%
37 | CCN1c2cc(N)ccc2-c2ccc(N)cc2C1c1ccccc1 (stereo not drawn) [Dihydroethidium] | 45.959%
38 | CCOc1cc2ncc(C#N)c(Nc3ccc(F)c(Cl)c3)c2cc1NC(=O)/C=C/CN(C)C [Pelitinib (EKB-569), Pelitinib] | 7.906%
39 | Cc1cc(-c2ccc(/N=N/c3ccc4c(S(=O)(=O)O)cc(S(=O)(=O)O)c(N)c4c3O)c(C)c2)ccc1/N=N/c1ccc2c(S(=O)(=O)O)cc(S(=O)(=O)O)c(N)c2c1O [Evans blue] | 68.3541%
40 | CO[C@H]1C[C@H](O[C@@H]2/C(C)=C/C[C@@H]3C[C@@H](C[C@]4(CC[C@H](C)[C@@H](C5CCCCC5)O4)O3)OC(=O)[C@@H]3C=C(C)/C(=N/O)[C@H]4OC/C(=C\C=C\[C@@H]2C)[C@]43O)O[C@@H](C)[C@@H]1O [SelaMeerin] | 8.709%
41 | Cc1cc(O)c2c(c1)C(=O)c1cc(O)cc(O)c1C2=O [Emodin] | 22.5571%

Same assay, conditions: 2nd round validation screen, STRN3-MST2; disruption of protein-bead interactions; listed as D-Biotin

Row | Molecule | False positive rate (%)
42 | O=C(O)CCCC[C@@H]1SC[C@@H]2NC(=O)N[C@@H]21 [BIOTIN] | 97.6042

Assay: Second-round AlphaScreen false-positive control with biotin-labeled and His-tagged STRN3 (Table S2)
Conditions: not given

Row | Molecule | False positive rate (%)
43 | COc1cccc(NCC(F)Cn2c3ccc(Br)cc3c3cc(Br)ccc32)c1 (stereo not drawn) [P7C3-A20] | 18.713
44 | COc1ccc(N(C(=O)Oc2c(C)cccc2C)c2ccnc(Nc3ccc(N4CCN(C)CC4)cc3)n2)c(OC)c1 [WH-4-023] | 30.0893
45 | C[n+]1cc2c3c(ccc2c2ccc4cc5c(cc4c21)OCO5)OCO3 [SANGUINARIUM CHLORIDE] | -0.3506
46 | COc1cc(N2CCC(N)CC2)ccc1Nc1ncc(Cl)c(-c2c[nH]c3ccccc23)n1 [AZD3463] | 62.6993
47 | COc1cc(OC)c(C=C2C(O)=Nc3ccccc32)c(OC)c1 [IC261] | 10.8171
48 | NCCNc1ccc(NCCN)c2c1C(=O)c1ccncc1C2=O.O=C(O)/C=C\C(=O)O.O=C(O)/C=C\C(=O)O [Pixantrone dimaleate] | 64.3519
49 | OC(CNc1ccccc1)Cn1c2ccc(Br)cc2c2cc(Br)ccc21 (stereo not drawn) [P7C3] | 31.4915
50 | O=C(/C=C/c1ccc2ccccc2n1)c1ccncc1 [PFK-015] | 0.3672
51 | O=C([O-])c1ccccc1-c1c2cc(Br)c(=O)cc-2oc2[c]([Hg+])c([O-])c(Br)cc12.[Na+].[Na+].[OH-] [Merbromin] | 18.2372
52 | COc1ccc(C(=C2C(=O)Nc3ccccc32)c2ccc(OC)cc2)cc1 [TAS-301] | 38.0603
53 | CCOc1cc2ncc(C#N)c(Nc3ccc(OCc4ccccn4)c(Cl)c3)c2cc1NC(=O)/C=C/CN(C)C [Neratinib(HKI-272), Neratinib] | 9.966
54 | O=C1NC(=NCc2cccs2)S/C1=C\c1ccc2ncccc2c1 [Ro-3306] | 8.046
55 | CC1=C(O)C(=O)C=C2C1=CC=C1[C@@]2(C)CC[C@@]2(C)[C@@H]3C[C@](C)(C(=O)O)CC[C@]3(C)CC[C@]12C [CELASTROL] | 22.2936
56 | CC(C)CN(C[C@@H](O)[C@H](Cc1ccccc1)NC(=O)O[C@H]1CO[C@H]2OCC[C@H]21)S(=O)(=O)c1ccc(N)cc1.CCO [Darunavir Ethanolate] | 7.178
57 | 6-BIO | 82.4556
58 | COc1ccc(C(=O)O[C@H]2CC[C@@]3(C)[C@@H]4CC[C@H]5[C@]6(O)C[C@H](O)[C@@]7(O)[C@@H](CN8C[C@@H](C)CC[C@H]8[C@@]7(C)O)[C@]6(O)C[C@@]53O[C@]24O)cc1OC [Veratridine] | 16.6514
59 | CNC(=O)c1ccccc1Nc1nc(Nc2ccc(N3CCOCC3)cc2OC)ncc1Cl [TAE-226] | 27.8775
60 | CC(=O)OCC1=C(C(=O)O)N2C(=O)[C@@H](NC(=O)CCC[C@@H](N)C(=O)O)[C@H]2SC1 [CEPHALOSPORIN C] | 2.128
